Reference: a collection of fitness landscapes (doi:10.1016/j.celrep.2020.107928)
In all, about 81,000 sequences were measured (“one-hybrid fitness for binding parS DNA”: median about -0.17, highest 2% from about 0.51 on). The list shows a part of the results.

B1: Caulobacter ParB omega fusion; a variant is named by its letters at X, in order, B8GW30 (parent)
chain: MESVVVGEPGMSEGRRGLGRGLSALLGEVDAAPAQAPGEQLGGSREAPIEILQRNPDQPRRTFREEDLEDLSNSIREKGVLQPILVRPSPDTAGEYQIVAGERAWRAAQRAGLKTVPIMVRELDDLAVLEIGIIENVQRADLNVLEEALSYKVLMEKFERTQENIAQTIGKSXSHVANXMRLLXLPDEVQSYLVSGELTAXHARAIAAAADPVALAKQIIEGGLSVRETEALARKAPNLSAGKSKGGRPPRVKDTDTQALESDLSSVLGLDVSIDHRGSTGTLTITYATLEQLDDLCNRLTRGI

Variants of: B1
Experiment: one-hybrid fitness for binding parS DNA (scaled: cognate 1, non-cognate 0); higher = stronger binding
Details: with parS DNA site
Procedure, shortened: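 Values were rescaled so that cognate is 1 and non-cognate is 0. Each is a fitness, the log change in a variant's read ratio to wild type from Illumina reads of plasmids before and after selection, with three replicate libraries pooled and variants under 10 reads dropped. Selection of the Caulobacter ParB libraries, four specificity codons randomised, used E. coli USO with a HIS3 reporter, site 19 bp from the promoter, on M9-minus-histidine with 0.1 mM IPTG and 5 mM 3-AT for 48 hours at 37°C.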

| Variant | one-hybrid fitness for binding parS DNA |
| --- | --- |
| VRLT | ≤ 0.2 |
| NMSF | ≤ 0.2 |
| VKME | ≤ 0.2 |
| CTFA | ≤ 0.2 |
| FCCG | ≤ 0.2 |
| RYQC | 0.898 |
| NGDV | ≤ 0.2 |
| NESY | ≤ 0.2 |
| ITWV | ≤ 0.2 |
| FTML | ≤ 0.2 |
| VHTW | ≤ 0.2 |
| RGGA | 0.285 |
| FKIV | ≤ 0.2 |
| QLAQ | ≤ 0.2 |
| SWKQ | ≤ 0.2 |
| QSNI | ≤ 0.2 |
| YHSP | ≤ 0.2 |
| QFYT | ≤ 0.2 |
| PSTV | ≤ 0.2 |
| STKD | ≤ 0.2 |
| FVES | ≤ 0.2 |
| DGGD | ≤ 0.2 |
| DKKW | ≤ 0.2 |
| DGNS | ≤ 0.2 |

| Variant | one-hybrid fitness for binding parS DNA |
| --- | --- |
| DCGS | ≤ 0.2 |
| SVKV | ≤ 0.2 |
| APPK | ≤ 0.2 |
| KTEC | ≤ 0.2 |
| PTVQ | ≤ 0.2 |
| VASC | ≤ 0.2 |
| NFRR | ≤ 0.2 |
| GYKC | ≤ 0.2 |
| FHTY | ≤ 0.2 |
| HALY | ≤ 0.2 |
| YMAT | ≤ 0.2 |
| RDTQ | ≤ 0.2 |
| KRMP | ≤ 0.2 |
| MERN | ≤ 0.2 |
| LSDM | ≤ 0.2 |
| DYVG | ≤ 0.2 |
| AFKG | ≤ 0.2 |
| WAHC | ≤ 0.2 |
| LSYS | ≤ 0.2 |
| SMTT | ≤ 0.2 |
| SFTG | ≤ 0.2 |
| ENPL | ≤ 0.2 |
| HVLW | ≤ 0.2 |
| ALWR | ≤ 0.2 |

| Variant | one-hybrid fitness for binding parS DNA |
| --- | --- |
| QHDM | ≤ 0.2 |
| RVCR | ≤ 0.2 |
| AVMR | ≤ 0.2 |
| FRLY | ≤ 0.2 |
| YIYC | ≤ 0.2 |
| TPLK | ≤ 0.2 |
| STPA | ≤ 0.2 |
| GPKC | ≤ 0.2 |
| KRND | ≤ 0.2 |
| MPQC | ≤ 0.2 |
| RPPM | ≤ 0.2 |
| HKSD | ≤ 0.2 |
| QYHD | ≤ 0.2 |
| HHPD | ≤ 0.2 |
| MKCR | ≤ 0.2 |
| KWGT | ≤ 0.2 |
| TNLG | ≤ 0.2 |
| QRGH | ≤ 0.2 |
| PRKA | ≤ 0.2 |
| NTMC | ≤ 0.2 |
| DTAT | ≤ 0.2 |
| YRME | ≤ 0.2 |
| RSQT | 0.874 |
| SHVR | ≤ 0.2 |

| Variant | one-hybrid fitness for binding parS DNA |
| --- | --- |
| KHGT | ≤ 0.2 |
| SQFA | ≤ 0.2 |
| RFKD | ≤ 0.2 |
| TVHV | ≤ 0.2 |
| FGRY | ≤ 0.2 |
| QFTY | ≤ 0.2 |
| PWNN | ≤ 0.2 |
| QRFA | ≤ 0.2 |
| NYGS | ≤ 0.2 |
| YHHR | ≤ 0.2 |
| RERN | ≤ 0.2 |
| YMCW | ≤ 0.2 |
| YTWR | ≤ 0.2 |
| RNTA | 0.473 |
| TTSI | ≤ 0.2 |
| RNDT | 0.562 |
| DPHA | ≤ 0.2 |
| PVAR | ≤ 0.2 |
| YWTC | ≤ 0.2 |
| AYRV | ≤ 0.2 |
| QEFS | ≤ 0.2 |
| RTYN | 0.424 |
| KSGG | ≤ 0.2 |
| MTEI | ≤ 0.2 |

| Variant | one-hybrid fitness for binding parS DNA |
| --- | --- |
| PSKC | ≤ 0.2 |
| QRMK | ≤ 0.2 |
| CNRC | ≤ 0.2 |
| TNVQ | ≤ 0.2 |
| KYYW | ≤ 0.2 |
| LILS | ≤ 0.2 |
| YKGV | ≤ 0.2 |
| FGVA | ≤ 0.2 |
| PQDS | ≤ 0.2 |
| SYDY | ≤ 0.2 |
| FNTL | ≤ 0.2 |
| HNRR | ≤ 0.2 |
| THKV | ≤ 0.2 |
| CRLR | ≤ 0.2 |
| QDNV | ≤ 0.2 |
| RLNW | 0.211 |
| CCGS | ≤ 0.2 |
| PRWF | ≤ 0.2 |
| AQNC | ≤ 0.2 |
| TVRP | ≤ 0.2 |
| EELW | ≤ 0.2 |
| RHWV | ≤ 0.2 |
| YPLY | ≤ 0.2 |
| HRRT | 0.208 |

| Variant | one-hybrid fitness for binding parS DNA |
| --- | --- |
| QVFK | ≤ 0.2 |
| GGWM | ≤ 0.2 |
| QAYD | ≤ 0.2 |
| QHRA | ≤ 0.2 |
| WTPV | ≤ 0.2 |
| LISC | ≤ 0.2 |
| KQRV | ≤ 0.2 |
| RPSC | ≤ 0.2 |
| TIDG | ≤ 0.2 |
| MQVR | ≤ 0.2 |
| SHKA | ≤ 0.2 |
| TCEY | ≤ 0.2 |
| PWKQ | ≤ 0.2 |
| QHHY | ≤ 0.2 |
| LMST | ≤ 0.2 |
| VSVK | ≤ 0.2 |
| QLMG | ≤ 0.2 |
| CPTV | ≤ 0.2 |
| VPVR | ≤ 0.2 |
| KRKP | ≤ 0.2 |
| RVQM | 0.278 |
| AQYA | ≤ 0.2 |
| NADQ | ≤ 0.2 |
| RSGI | ≤ 0.2 |

| Variant | one-hybrid fitness for binding parS DNA |
| --- | --- |
| KCNT | ≤ 0.2 |
| LGHP | ≤ 0.2 |
| RPKI | ≤ 0.2 |
| FGCR | ≤ 0.2 |
| QSDD | ≤ 0.2 |
| TRSK | ≤ 0.2 |
| QVGA | ≤ 0.2 |
| QRYL | ≤ 0.2 |
| QLCS | ≤ 0.2 |
| KLNA | ≤ 0.2 |
| LWSM | ≤ 0.2 |
| ENRH | ≤ 0.2 |
| ESVW | ≤ 0.2 |
| DWKT | ≤ 0.2 |
| KPHW | ≤ 0.2 |
| GISS | ≤ 0.2 |
| ACST | ≤ 0.2 |
| SEEF | ≤ 0.2 |
| KANM | ≤ 0.2 |
| HNPF | ≤ 0.2 |
| SCYG | ≤ 0.2 |
| SVLP | ≤ 0.2 |
| NFLV | ≤ 0.2 |
| HPTD | ≤ 0.2 |

| Variant | one-hybrid fitness for binding parS DNA |
| --- | --- |
| STPW | ≤ 0.2 |
| PTKE | ≤ 0.2 |
| IGQF | ≤ 0.2 |
| CVLA | ≤ 0.2 |
| IRQI | ≤ 0.2 |
| MGFS | ≤ 0.2 |
| KGCS | ≤ 0.2 |
| PFCL | ≤ 0.2 |
| NWAC | ≤ 0.2 |
| HEST | ≤ 0.2 |
| DGPS | ≤ 0.2 |
| TYTW | ≤ 0.2 |
| QDEK | ≤ 0.2 |
| EEGR | ≤ 0.2 |
| RAAF | 0.242 |
| LTRV | ≤ 0.2 |
| MAFR | ≤ 0.2 |
| LFTF | ≤ 0.2 |
| MGSS | ≤ 0.2 |
| RYTH | ≤ 0.2 |
| MGMS | ≤ 0.2 |
| QHRW | ≤ 0.2 |
| TLRW | ≤ 0.2 |
| MTEC | ≤ 0.2 |

| Variant | one-hybrid fitness for binding parS DNA |
| --- | --- |
| NTCF | ≤ 0.2 |
| PELE | ≤ 0.2 |
| QTKM | ≤ 0.2 |
| NYRN | ≤ 0.2 |
| VDEC | ≤ 0.2 |
| ISYS | ≤ 0.2 |
| PSFQ | ≤ 0.2 |
| WFNI | ≤ 0.2 |
| CCHC | ≤ 0.2 |
| PSMF | ≤ 0.2 |
| TWQF | ≤ 0.2 |
| CPGQ | ≤ 0.2 |
| HSKV | ≤ 0.2 |
| GCTV | ≤ 0.2 |
| RMGA | 0.573 |
| WLRV | ≤ 0.2 |
| AGGG | ≤ 0.2 |
| LANW | ≤ 0.2 |
| KRFA | ≤ 0.2 |
| GAHH | ≤ 0.2 |
| SDEF | ≤ 0.2 |
| PDCM | ≤ 0.2 |
| DRKY | ≤ 0.2 |
| NVQF | ≤ 0.2 |

| Variant | one-hybrid fitness for binding parS DNA |
| --- | --- |
| GHRW | ≤ 0.2 |
| HDPA | ≤ 0.2 |
| HYPI | ≤ 0.2 |
| WTKK | ≤ 0.2 |
| MYHP | ≤ 0.2 |
| GNRM | ≤ 0.2 |
| TRCV | ≤ 0.2 |
| TDHH | ≤ 0.2 |
| PEQR | ≤ 0.2 |
| QWTT | ≤ 0.2 |
| SHTL | ≤ 0.2 |
| QMCD | ≤ 0.2 |
| PILA | ≤ 0.2 |
| MRAC | ≤ 0.2 |
| SGHR | ≤ 0.2 |
| LPDE | ≤ 0.2 |
| NDIS | ≤ 0.2 |
| YKRR | ≤ 0.2 |
| DTAA | ≤ 0.2 |
| FAIS | ≤ 0.2 |
| MCPC | ≤ 0.2 |
| MQRT | ≤ 0.2 |
| RSPH | ≤ 0.2 |
| HSIN | ≤ 0.2 |

| Variant | one-hybrid fitness for binding parS DNA |
| --- | --- |
| DQVT | ≤ 0.2 |
| FTTV | ≤ 0.2 |
| HGRY | ≤ 0.2 |
| AWQC | ≤ 0.2 |
| FNNT | ≤ 0.2 |
| NCML | ≤ 0.2 |
| QTPN | ≤ 0.2 |
| LCYL | ≤ 0.2 |
| LVDL | ≤ 0.2 |
| SDVN | ≤ 0.2 |
| PTPG | ≤ 0.2 |
| NSRQ | ≤ 0.2 |
| PDDH | ≤ 0.2 |
| AYRG | ≤ 0.2 |
| QTQR | ≤ 0.2 |
| QMIS | ≤ 0.2 |
| MTLW | ≤ 0.2 |
| PSHS | ≤ 0.2 |
| YFPS | ≤ 0.2 |
| AHQS | ≤ 0.2 |
| GRAC | ≤ 0.2 |
| NALD | ≤ 0.2 |
| QCKE | ≤ 0.2 |
| RLLR | ≤ 0.2 |

| Variant | one-hybrid fitness for binding parS DNA |
| --- | --- |
| RATW | 0.213 |
| RMPS | 0.889 |
| SERS | ≤ 0.2 |
| CDYG | ≤ 0.2 |
| TFIR | ≤ 0.2 |
| CTLC | ≤ 0.2 |
| CRHW | ≤ 0.2 |
| LDYT | ≤ 0.2 |
| IRVV | ≤ 0.2 |
| TVTC | ≤ 0.2 |
| RKWP | ≤ 0.2 |
| GALC | ≤ 0.2 |
| NVKF | ≤ 0.2 |
| CLSD | ≤ 0.2 |
| PYHE | ≤ 0.2 |
| PDKL | ≤ 0.2 |
| TGNQ | ≤ 0.2 |
| RPHE | ≤ 0.2 |
| RVHT | 0.927 |
| GHCW | ≤ 0.2 |
| QTTK | ≤ 0.2 |
| TIES | ≤ 0.2 |
| AYYN | ≤ 0.2 |
| QCYI | ≤ 0.2 |

| Variant | one-hybrid fitness for binding parS DNA |
| --- | --- |
| IFWS | ≤ 0.2 |
| NIYS | ≤ 0.2 |
| KSPY | ≤ 0.2 |
| CKAT | ≤ 0.2 |
| YCHW | ≤ 0.2 |
| RGCG | 0.558 |
| TGAP | ≤ 0.2 |
| SQDV | ≤ 0.2 |
| CCAD | ≤ 0.2 |
| VLKR | ≤ 0.2 |
| QTHQ | ≤ 0.2 |
| RMCV | ≤ 0.2 |
| VKLI | ≤ 0.2 |
| TGKM | ≤ 0.2 |
| RQWR | ≤ 0.2 |
| PSGQ | ≤ 0.2 |
| MSEA | ≤ 0.2 |
| QQMK | ≤ 0.2 |
